Experimental data from patent US20220025050A1 (OSE IMMUNOTHERAPEUTICS, published 2022).

Tests used:
[1] = biological target: T1, recombinant hPD1 (Sino Biologicals, reference 10377-H08H) (human, UniProt Q15116 part only); assay: ELISA: hPD-1 immobilized, anti-human Fc peroxidase
T1 construct: also called Human recombinant PD-1 protein; PD1-His recombinant protein

[2] = biological target: T1, recombinant hPD1 (Sino Biologicals, …); assay: ELISA: hPD-1 immobilized, anti-human Fc peroxidase; remark: listed apart in the source
[3] = biological target: T1, recombinant hPD1 (Sino Biologicals, …); assay: ELISA: hPD-1 immobilized (FIG. 4, Table 1)
[4] = biological target: T2, biotinylated Human PD1 (AcroBiosystems, reference EP-101) (human, UniProt Q15116 part only, limits assumed, biotinylated); assay: competition ELISA: PD-L1 immobilized, biotinylated PD-1 at fixed concentration, antibody varied
T2 construct: also called biotinylated recombinant human PD-1; recombinant biotinylated PD1 protein
Method: FIG. 8: Competition PD-1/PD-L1 or PD-L2 ELISA assay. […] (D): PD-1/PD-L2 antagonist activity. […] Similar protocol as PD-L1/PD-1 assay was used for revelation. In this experiment, the bifunctional molecule comprises a humanized anti-PD1 antibody having a heavy chain variable domain as disclosed in SEQ ID NO: 24 and a light chain variable domain as disclosed in SEQ ID NO:28.
Competitive ELISA assay was performed by PD-1:PD-L1 Inhibitor Screening ELISA Assay Pair (AcroBiosystems; USA; reference EP-101). In this assay, recombinant hPDL1 was immobilized on plastic at 2 μg/ml in PBS pH 7.4 buffer. […] Same ELISA protocol was performed to assess PDL2/PD1 antagonist activity by coating PD-L2 Fc recombinant protein (Sinobiological, #10292-H02H).

Binder | EC50 [1] [ng/mL] | EC50 [2] [ng/mL] | EC50 [3] [ng/mL] | IC50 [4] [ng/mL]
Chimeric anti-PD1 fused to IL-7 on heavy and light chains (other, not shown: small tags and cut ends) heavy: QIQLVQSGPELKKPGETVKISCKASGYTFTHYGMNWVKQAPGKGLKWMGWINTNTGEPTYAEEFKGRFAFSLETSASAAFLQINNLKNEDTATYFCAKEREPGMDSWGQGTSVTVSSASTKGPSVFPLAPCSRSTSESTAALGCLVKDYFPEPVTVSWNSGALTSGVHTFPAVLQSSGLYSLSSVVTVPSSSLGTKTYTCNVDHKPSNTKVDKRV[human IgG4 Fc with S228P L445P (EU numbers) omitted here]DCDIEGKDGKQYESVLMVSIDQLLDSMKEIGSNCLNNEFNFFKRHICDANKEGMFLFRAARKLRQFLKMNSTGDFDLHLLKVSEGTTILLNCTGQVKGRKPAALGEAQPTKSLEENKSLKEQKKLNDLCFLKRLLQEIKTCWNKILMGTKEH light: DVLLTQTPLSLPVSLGDQASISCRSSQNIVHANGNTYLEWYLQKPGQSPKLLIYKVSNRFSGVPDRFSGSGSGTDFTLKITRVEAEDLGVYYCFQGSHVPNTFGGGTKLEIKRTVAAPSVFIFPPSDEQLKSGTASVVCLLNNFYPREAKVQWKVDNALQSGNSQESVTEQDSKDSTYSLSSTLTLSKADYEKHKVYACEVTHQGLSSPVTKSFNRGECDCDIEGKDGKQYESVLMVSIDQLLDSMKEIGSNCLNNEFNFFKRHICDANKEGMFLFRAARKLRQFLKMNSTGDFDLHLLKVSEGTTILLNCTGQVKGRKPAALGEAQPTKSLEENKSLKEQKKLNDLCFLKRLLQEIKTCWNKILMGTKEH | 2.11 |  |  | 
Anti-PD1 VH fusion to Cytokine-protein A (IL-7), FIG. 4 / Table 1 (other) chain 1: QIQLVQSGSELKKPGASVKVSCKASGYTFTHYAMNWVRQAPGQGLEWMGWINTNTGEPTYAQGFTGRFVFSLDTSVSTAYLQISSLKAEDTAVYYCAREREPGMDTWGQGTLVTVSSASTKGPSVFPLAPCSRSTSESTAALGCLVKDYFPEPVTVSWNSGALTSGVHTFPAVLQSSGLYSLSSVVTVPSSSLGTKTYTCNVDHKPSNTKVDKRV[human IgG4 Fc with S228P L445P (EU numbers) omitted here]GGGGSGGGGSGGGGSDCDIEGKDGKQYESVLMVSIDQLLDSMKEIGSNCLNNEFNFFKRHICDANKEGMFLFRAARKLRQFLKMNSTGDFDLHLLKVSEGTTILLNCTGQVKGRKPAALGEAQPTKSLEENKSLKEQKKLNDLCFLKRLLQEIKTCWNKILMGTKEH chain 2: DVVMTQSPLSLPVTLGQPASISCRSSQSLVHANTNTYLEWYQQRPGQSPRLLIYKVSNRFSGVPDRFSGSGSGTDFTLKISRVEAEDVGVYYCFQGTHVPNTFGQGTKLEIKRTVAAPSVFIFPPSDEQLKSGTASVVCLLNNFYPREAKVQWKVDNALQSGNSQESVTEQDSKDSTYSLSSTLTLSKADYEKHKVYACEVTHQGLSSPVTKSFNRGEC |  | 5 | < 10 | 
Anti-PD1 VL fusion to Cytokine-protein A (IL-7), FIG. 4 / Table 1 (other) chain 1: QIQLVQSGSELKKPGASVKVSCKASGYTFTHYAMNWVRQAPGQGLEWMGWINTNTGEPTYAQGFTGRFVFSLDTSVSTAYLQISSLKAEDTAVYYCAREREPGMDTWGQGTLVTVSSASTKGPSVFPLAPCSRSTSESTAALGCLVKDYFPEPVTVSWNSGALTSGVHTFPAVLQSSGLYSLSSVVTVPSSSLGTKTYTCNVDHKPSNTKVDKRV[human IgG4 Fc with S228P L445P (EU numbers) omitted here] chain 2: DVVMTQSPLSLPVTLGQPASISCRSSQSLVHANTNTYLEWYQQRPGQSPRLLIYKVSNRFSGVPDRFSGSGSGTDFTLKISRVEAEDVGVYYCFQGTHVPNTFGQGTKLEIKRTVAAPSVFIFPPSDEQLKSGTASVVCLLNNFYPREAKVQWKVDNALQSGNSQESVTEQDSKDSTYSLSSTLTLSKADYEKHKVYACEVTHQGLSSPVTKSFNRGECGGGGSGGGGSGGGGSDCDIEGKDGKQYESVLMVSIDQLLDSMKEIGSNCLNNEFNFFKRHICDANKEGMFLFRAARKLRQFLKMNSTGDFDLHLLKVSEGTTILLNCTGQVKGRKPAALGEAQPTKSLEENKSLKEQKKLNDLCFLKRLLQEIKTCWNKILMGTKEH |  | 5.11 | < 10 | 

Next, values leading:

EC50 [1] [ng/mL] | EC50 [2] [ng/mL] | EC50 [3] [ng/mL] | IC50 [4] [ng/mL] | Binder
3.9 |  |  |  | Humanized anti-PD1 (VH SEQ ID NO:19, VL SEQ ID NO:28) fused to IL-7 on heavy and light chains (other) heavy: QIQLVQSGSELKKPGASVKVSCKASGYTFTHYAMNWVRQAPGQGLEWMGWINTNTGEPTYAQGFTGRFVFSLDTSVSTAYLQISSLKAEDTAVYYCAREREPGMDTWGQGTLVTVSSASTKGPSVFPLAPCSRSTSESTAALGCLVKDYFPEPVTVSWNSGALTSGVHTFPAVLQSSGLYSLSSVVTVPSSSLGTKTYTCNVDHKPSNTKVDKRV[human IgG4 Fc with S228P L445P (EU numbers) omitted here]GGGGSGGGGSGGGGSDCDIEGKDGKQYESVLMVSIDQLLDSMKEIGSNCLNNEFNFFKRHICDANKEGMFLFRAARKLRQFLKMNSTGDFDLHLLKVSEGTTILLNCTGQVKGRKPAALGEAQPTKSLEENKSLKEQKKLNDLCFLKRLLQEIKTCWNKILMGTKEH light: DVVMTQSPLSLPVTLGQPASISCRSSQSLVHANTNTYLEWYQQRPGQSPRLLIYKVSNRFSGVPDRFSGSGSGTDFTLKISRVEAEDVGVYYCFQGTHVPNTFGQGTKLEIKRTVAAPSVFIFPPSDEQLKSGTASVVCLLNNFYPREAKVQWKVDNALQSGNSQESVTEQDSKDSTYSLSSTLTLSKADYEKHKVYACEVTHQGLSSPVTKSFNRGECGGGGSGGGGSGGGGSDCDIEGKDGKQYESVLMVSIDQLLDSMKEIGSNCLNNEFNFFKRHICDANKEGMFLFRAARKLRQFLKMNSTGDFDLHLLKVSEGTTILLNCTGQVKGRKPAALGEAQPTKSLEENKSLKEQKKLNDLCFLKRLLQEIKTCWNKILMGTKEH
 |  |  | 517 | Humanized anti-PD1 (VH SEQ ID NO:24, VL SEQ ID NO:28) VL fusion to Cytokine-protein A (IL-7) (other, Bifunctional molecule; also called Anti-PD1 fused to Cytokine-protein A (IL-7), VL fusion) heavy: QIQLVQSGSELKKPGASVKVSCKASGYTFTHYAMNWVRQAPGQGLEWMGWINTNTGEPTYAQGFTGRFVFSLDTSVSTAYLQISSLKAEDTAVYYCAREREPGMDNWGQGTLVTVSSASTKGPSVFPLAPCSRSTSESTAALGCLVKDYFPEPVTVSWNSGALTSGVHTFPAVLQSSGLYSLSSVVTVPSSSLGTKTYTCNVDHKPSNTKVDKRV[human IgG4 Fc with S228P L445P (EU numbers) omitted here] light: DVVMTQSPLSLPVTLGQPASISCRSSQSLVHANTNTYLEWYQQRPGQSPRLLIYKVSNRFSGVPDRFSGSGSGTDFTLKISRVEAEDVGVYYCFQGTHVPNTFGQGTKLEIKRTVAAPSVFIFPPSDEQLKSGTASVVCLLNNFYPREAKVQWKVDNALQSGNSQESVTEQDSKDSTYSLSSTLTLSKADYEKHKVYACEVTHQGLSSPVTKSFNRGECGGGGSGGGGSGGGGSDCDIEGKDGKQYESVLMVSIDQLLDSMKEIGSNCLNNEFNFFKRHICDANKEGMFLFRAARKLRQFLKMNSTGDFDLHLLKVSEGTTILLNCTGQVKGRKPAALGEAQPTKSLEENKSLKEQKKLNDLCFLKRLLQEIKTCWNKILMGTKEH
